# Among all 420,000 compounds or so, about 64,000 (15%) were called active. The shares of active, inactive and inconclusive entries below differ from those in the screen. The call rests on the fitted dose curve; in most records, active means well fitted inhibition curve with a large enough effect; inconclusive means small, poorly fitted or top-dose-only effect; inactive means flat fitted curve, though single readings scatter. No potency is given beside an inconclusive call; the fits are too rough.
# Assay: qHTS for Inhibitors of human tyrosyl-DNA phosphodiesterase 1 (TDP1): qHTS in cells in absence of CPT; further: nearly all actives have a fitted effect of over 55% in size
# Conditions: DT40 Tdp1-/- hTDP1 cells, no CPT, ATP luminescence, 48 h; activity change, negative = growth inhibition: at 46.2 µM (top of the series) unless noted
# Summary of the method: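 Compound effects on proliferation are scored in DT40 Tdp1-/-;hTDP1 cells in the absence of CPT. ATP levels (CellTiter-Glo luminescence) are recorded after a ≥48 hr, 37 °C incubation.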
# On the % scale 0 is the no-effect control and ±100 the full control effect; potency means the concentration at half of the fitted maximal effect; tags describe the fitted curve by direction and shape.
SMILES,"activity change, negative = growth inhibition",Potency
CC1(C)NC(=O)N(CC(=O)OCC(=O)Nc2c(Br)cc([N+](=O)[O-])cc2Br)C1=O,inactive: 15.7%,
COc1cccc(N2CC(NS(=O)(=O)c3ccc(Cl)cc3)CC2=O)c1 (stereo not given),inactive: -18.3%,
COc1ccccc1N(CC(=O)NCCSCc1ccccc1)S(C)(=O)=O,,inactive
C[C@@H]1CN([C@@H](C)CO)C(=O)CCCn2nncc2CO[C@@H]1CN(C)C(=O)Nc1ccc(-c2cccs2)cc1,,"inconclusive [inhibitor, single point]"
CCNC(=O)C1(C)CCCN1C(=O)c1ccc(-c2ccccc2)cc1 (stereo not given),,"inconclusive [inhibitor, partial curve, poor fit]"
CSCCC(NC(=O)c1ccc(C)o1)C(=O)O (stereo not given),inactive: 4.97%,
Cc1ccc(O)c(CP(=O)(c2ccccc2)c2ccccc2)c1,,"inconclusive [inhibitor, single point]"
CCCCSCCCNC(=O)c1ccc(CS(=O)(=O)c2ccccc2OC)o1,inconclusive: -31.3% [inhibitor],
CCc1nnc2c(Nc3cccc(C(C)=O)c3)nc3ccccc3n12,,"inconclusive [inhibitor, full curve]"
CC(C)c1nnc(NC(=O)CCS(=O)(=O)c2nc(-c3cccs3)cc(C(F)(F)F)n2)s1,,active: 4.11 µM
CN(C)S(=O)(=O)N1CCC(c2ccc(F)cc2)C(COc2ccc3c(c2)OCO3)C1 (stereo not given),,"inconclusive [inhibitor, single point]"
CC(=O)c1ccc(OCc2nnn(CC(=O)O)c2-c2ccccc2)cc1,inactive: 5.78%,
Cc1cc(C)nc(NS(=O)(=O)c2ccc(N=Cc3c(C)[nH]n(-c4ccccc4)c3=O)cc2)n1,,"inconclusive [inhibitor, single point]"
CSc1sccc1/C=C(/C#N)C(=O)c1ccco1,inactive: 0.636%,
Cn1c(=O)c2cc(NC(=O)NCc3ccc(F)cc3)ccc2n1Cc1cccc(C(F)(F)F)c1,,active: 14.6 µM
COc1ccc(-c2cc(C(F)(F)F)nc(SCC(=O)NCc3ccc(OC)c(OC)c3)n2)cc1,,"inconclusive [inhibitor, partial curve]"
COc1ccc(S(=O)(=O)N2CCC(C(=O)N3CCC(C(N)=O)CC3)CC2)cc1Cl,inactive: -7.71%,
CCCN(C(=O)c1cn(CC)c2nc(C)ccc2c1=O)c1c(N)n(Cc2ccccc2)c(=O)[nH]c1=O,inactive: -8.05%,
O=[N+]([O-])c1cc([N+](=O)[O-])c(Oc2ccc(Br)cc2Br)cc1NN1CCCCC1,,"inconclusive [inhibitor, single point]"
CCOc1ccc(NC(=O)NCCCn2c(C)nc3cc(C)c(C)cc32)cc1,,"inconclusive [inhibitor, partial curve]"

# — PubChem BioAssay AID686978 (National Center for Advancing Translational Sciences (NCATS), 2013)
